From PubChem BioAssay (NCI)
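Exposure lasted 48 hours, with cells grown in 96-well plates and compounds tested at five concentrations. Here, GI50 denotes the concentration required for 50% inhibition of growth.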 A number of entries come with more than one value. This list holds those alone. An entry can have further records. For part of these data: Records of one sample usually come from different ranges of test concentrations, not given here; a value can be the end of its range. For part of these data: Results that share an entry are repeats across runs, samples, wells, individuals or studies. Records carry a tag for their origin. A, B and so on number the origins entry by entry.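 TGI marks complete inhibition of growth.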

Columns and labels:
Assay in all cases: NCI tumour cell line growth inhibition, 48 h
HOP-92 NSCLC = test system: HOP-92 NSCLC
SR leukemia = test system: SR leukemia
COLO 205 colon = test system: COLO 205 colon
HCC-2998 colon = test system: HCC-2998 colon
HCT-15 colon = test system: HCT-15 colon
NCI-H460 lung = test system: NCI-H460 lung
RPMI-8226 leukemia = test system: RPMI-8226 leukemia
OVCAR-5 ovarian = test system: OVCAR-5 ovarian
P388/ADR leukemia = test system: P388/ADR leukemia
BT-549 breast = test system: BT-549 breast
MDA-MB-435 = test system: MDA-MB-435
OVCAR-4 ovarian = test system: OVCAR-4 ovarian
TK-10 renal = test system: TK-10 renal

For `ClCCCN1CCN(CCCl)CC1`, the TGI (HOP-92 NSCLC) was 9.66 µM and 424 µM and the TGI (SR leukemia) was 39 µM and > 697 µM.
`COc1ccc2[nH]c3ccc4cc[n+](CCN5CCC(C6CCN(CC[n+]7ccc8ccc9[nH]c%10ccc(OC)cc%10c9c8c7)CC6)CC5)cc4c3c2c1` was tested, and the GI50 (COLO 205 colon) was > 50 µM and 657 nM, the GI50 (HCC-2998 colon) was 152 nM and 4.89 µM and the TGI (HCT-15 colon) was 1.92 µM and > 78.6 µM. For the same molecule, the GI50 (NCI-H460 lung) was 18.3 nM [1 test] and 256 nM [mean of 2 tests], the TGI (NCI-H460 lung) was 174 nM [1 test] and > 100 µM [mean of 2 tests] and the TGI (RPMI-8226 leukemia) was 3.01 µM and > 100 µM.
In the case of `CC(=O)OCC1OC(n2c(C)c(C)cc(C#N)c2=S)C(OC(C)=O)C(OC(C)=O)C1OC(C)=O` (stereo not drawn), the GI50 (HOP-92 NSCLC) is reported as > 100 µM [sample A, 1 test] and 533 nM [sample B, 1 test] and the GI50 (OVCAR-5 ovarian) is reported as > 100 µM [sample A, 1 test] and 32.4 nM [sample B, 1 test].
In the case of `CCC/C=C/C=C/C(=O)OC1/C(=C/C(=O)OC)CC2CC(C(C)O)OC(=O)CC(O)CC3CC(OC(C)=O)C(C)(C)C(O)(CC4C/C(=C/C(=O)OC)CC(/C=C/C(C)(C)C1(O)O2)O4)O3` (stereo not drawn), the GI50 (COLO 205 colon) is reported as > 12.5 µM [1 test] and 4.16 µM [mean of 3 tests] and 977 nM [mean of 5 tests] and the GI50 (P388/ADR leukemia) is reported as 1.42 nM [mean of 2 tests] and 2.9 µM [mean of 3 tests].
With `CCc1nc(N)nc(N)c1C#CC(C)c1ccc(-c2ccncc2)cc1Cl` (stereo not drawn) the GI50 (BT-549 breast) was < 5 nM and 164 nM, the GI50 (MDA-MB-435) was < 5 nM and 55.5 nM and the TGI (NCI-H460 lung) was 1.02 µM and 10.2 µM. The GI50 (OVCAR-4 ovarian) was 117 nM and 2.68 µM, the GI50 (SR leukemia) was < 5 nM and 57.5 nM and the GI50 (TK-10 renal) was 605 nM and 58.6 nM.
